Data reported in patent publication US20230042694A1 (SUZHOU CUREMED BIOMEDICAL TECHNOLOGY, published 2023).

Molecular target: KRAS protein (UniProt P01116)
Assay: cell-based or functional assay

B1: recombinant polypeptide K19-VHK (N-K19 (first polypeptide)-linker peptide-VHL (second polypeptide)-C) (other)
chain: [sequence of about 200 residues not given]LEGGGGSAAAMDLGKKLLEAARAGQDDEVRILMANGADVNASDRWGWTPLHLAAWWGHLEIVEVLLKRGADVSAADLHGQSPLHLAAMVGHLEIVEVLLKYGADVNAKDTMGATPLHLAARSGHLEIVEELLKNGADMNAQDKFGKTTFDISTDNGNEDLAEILQKLVDGGSDYKDDDDK
- Percentage of KRAS protein level (Western Blot, H358 cells, 6 hours after transfection; protein level of EV29-K19-VHKC as control): 26.8%
